# Measured values published in the supplement of paper PMC10338343.
# ± gives the standard deviation. Over roughly 3,000 sequences, “pre-steady-state target cleavage rate” has its median near 0.0079; the highest 2% begin near 0.2. The entries are a selection whose mix differs from that of the whole data set.
# System: MILI (PIWIL2) piRISC loaded with piRNA #2 (26 nt)
# Assay: pre-steady-state target cleavage rate (min^-1); MIWI and MILI are mouse PIWI proteins and EfPiwi is from a freshwater sponge; tags in brackets are library labels; higher = faster piRNA-guided slicing of the target
# Settings: guide: piRNA #2 5'p-UUAGGUAACCCAGUAGAUCCAGAGGA; auxiliary factor: 500 nM mouse GTSF1
# Method in brief: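 In this Cleave-'n-Seq assay, uncleaved targets were sequenced and normalised to depth and to weakly complementary targets. They came from a transcribed, DNA-blocked target RNA library […] mixed with 1 nM active affinity-purified piRISC carrying one synthetic guide, with or without 500 nM GTSF1 partner protein, in HEPES–potassium acetate buffer at 33 °C for 0–8 or 0–960 min. After three trials were pooled and k3 was capped at 0.0001 min^-1, the pre-steady-state cleavage rate was obtained from a burst-and-steady-state fit.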
# 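Note: 1 nM active piRISC with 0.1 nM target library at 33 °C single turnover.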
row,Sequence,pre-steady-state target cleavage rate
1,CUUAAGGUCUGGAUCUACACCGUUACCUAA,0.0062 ± 0.0029
2,CUUAAGGUCUGGAUCAACUGGGUUACCUAA,0.0487 ± 0.013
3,CUUAACCUCAGGAUCUACUGGGUUAGCUAA,0.00818 ± 0.0057
4,CUUAAGGUCUGGAGCUACUGGGUUACCUAA,0.0669 ± 0.02
5,CUUAAGGACUGGAUCCUACUGGGUUACCUAA,0.0057 ± 0.0043
6,CUUAAGCUCUGGAACUUCUGGGUUACCUAA,0.033 ± 0.0096
7,CUUAAGGACAGGAUCUACUGGGUUACCUUA,0.0127 ± 0.0097
8,CUUAAGGAGUGGAUCUGCUGGGUUACCUAA,0.0101 ± 0.0049
9,CUUAUCCUGUGGAUCUACUGGGUUACCAAA,0.0146 ± 0.0049
10,CUUAACCUCUGGAUCUACUGGGUUUGCUAA,0.305 ± 0.066
11,CUUAACCUCAGGAUCUACUGGGUUACCUAA,0.0969 ± 0.018
12,CUUAAGGUCUGGGAUCUACUGGGUUACCUAA,0.0581 ± 0.014
13,CUUAAGCUCUGGAUCCUACUGGGUUACCUAA,0.0172 ± 0.0077
14,CUUAAGGACUGGAUCUACUGGGUUACUUAA,0.0226 ± 0.0096
15,CUUAUCCUCUGGAUGCUACUGGGUUACCUAA,0.0881 ± 0.02
16,CUUAUCCUCUGGAUCUACUGGAGUUACCUAA,0.00429 ± 0.0039
17,CUUAACCUGUGGAACUACUGGGUUACCUAA,0.0364 ± 0.017
18,CUUAACCUCUGGAUCUACUGAGGUUACCUAA,0.0055 ± 0.0041
19,CUUAAGCACAGGAUCUACUGGGUUACCUAA,0.0242 ± 0.011
20,CUUAACCUCUGGAUCUACUGGGUGUACCUAA,0.0767 ± 0.019
21,CUUAUCGUCUGGAUCUACUGGGUUACGUAA,0.0246 ± 0.0097
22,CUUAUCCUCUCGAUCUACUGGGUUACCUAA,0.169 ± 0.02
23,CUUAAGCUCUGGAUCUACUGGGUCUACCUAA,0.0472 ± 0.0092
24,CUUAAGGUCUGGAUCUACUGGGUAUGCUAA,0.0114 ± 0.0055

row,Sequence,pre-steady-state target cleavage rate
1,CUUAAGGACUGGCUCUACUGGGUUACCUAA,0.0352 ± 0.019
2,CUUAACCUCUGGAUCUACUGGGUUACGAAA,0.0868 ± 0.024
3,CUUAUCGUCUGGAUCUACUGCGUUACCUAA,0.0132 ± 0.0052
4,CUUAAGCUCUGGAUCUACUGGGUUACGAAA,0.0655 ± 0.016
5,CUUAUCCUCCUGGAUCUACUGGGUUACCUAA,0.0909 ± 0.022
6,CUUAAGGUCUGCAUCUACUGGGUUUCCUAA,0.00793 ± 0.0048
7,CUUAUGCUCUCGAUCUACUGGGUUACCUAA,0.158 ± 0.025
8,CUUAAGCUCUGGAUCAACUGGGAUACCUAA,0.0143 ± 0.0049
9,CUUAACGUCUGGAUCUACAGGGUUACCUAA,0.099 ± 0.014
10,CUUAACCUCAGGAUCUUCUGGGUUACCUAA,0.0628 ± 0.019
11,CUUAAGGAGACCUAGAUCUGUGGUUACCUAA,< 0.0001
12,CUUAAGCUCUGGGUCUACUGGGUUACCUAA,0.104 ± 0.027
13,CUUAAGGUCUCGAUCUACUGGGUUACCAAA,0.0255 ± 0.0086
14,CUUAUCCUCUGGAUCUACUGGUUUACCUAA,0.0133 ± 0.0054
15,CUUAAGCUCUGGAUCUACUGGGUUAGGAAA,0.0151 ± 0.0075
16,CUUAUGCUGUGGAUCUACUGGGUUACCUAA,0.0703 ± 0.017
17,CUUAAGCUCUGGAACUACUGGGUUACGUAA,0.0506 ± 0.019
18,CUUAUCCUCUGGAUCUACAGGGUUUCCUAA,0.0854 ± 0.024
19,CUUAACCUCUGGAUCUAGUGGGUUACCUUA,0.0692 ± 0.015
20,CUUAAGGACUGGAUCUACUGGGUUACCUAU [g2:g22:cont:t1U],0.0422 ± 0.018
21,CUUAAGGAGUGGAUCUACUGGGUUACCUUA,0.0347 ± 0.011
22,CUUAUCCUCUGGAUCUAAUGGGUUACCUAA,0.0581 ± 0.011
23,CUUAUCCUCGGGAUCUACUGGGUUACCUAA,0.0836 ± 0.034
24,CUUAAGGAGUGGUUCUUCUGGGUUACCUAA,0.00452 ± 0.0043

row,Sequence,pre-steady-state target cleavage rate
1,CUUAUCCUCUGGAUCUAGUGGGUUACGUAA,0.0179 ± 0.004
2,CUUAUCCACUGGAUCUACUGGGUUACCAAA,0.0504 ± 0.0096
3,CUUAAGCUCUGAAUCUACUGGGUUACCUAA,0.0294 ± 0.01
4,CUUAAGGACUGGAUCUACAGGGUUACGUAA,0.016 ± 0.0054
5,CUUAACGUCUGGAUCUACUGGGUUACCAAA,0.0696 ± 0.017
6,CUUAAGCUCUGGAUCUACUGGGUUAUCUAA,0.0639 ± 0.011
7,CUUAAGGAGUGGAUCAACUGGGUUACCAAA,0.00418 ± 0.0038
8,CUUAAGGUCUGGAUAUACUGGGUUACCUAA,0.0732 ± 0.011
9,CUUAAGGUCUCGAUCUACUGGGUUAGCUAA,0.0089 ± 0.0044
10,CUUAAGCUCUCGAACUACUGGGUUACCUAA,0.0609 ± 0.012
11,CUUAACCUCUGGAUCUACUGGGCUACCUAA,0.0375 ± 0.014
12,CUUAAGGAGUGGAUCUAUUGGGUUACCUAA,0.00881 ± 0.0035
13,CUUAUCCUCUGGACCUACUGGGUUACCUAA,0.0996 ± 0.024
14,CUUAAGGUCUGGAUCUACAGGGUUACCUAA,0.111 ± 0.014
15,CUUAUCCUCUGGAUCUACUGCGUUACCAAA,0.00957 ± 0.0042
16,CUUAAGGAGAGGAAUCUACUGGGUUACCUAA,0.00399 ± 0.0036
17,CUUAACGUCUGGAUCUACUGGGUUUCCUAA,0.0895 ± 0.021
18,CUUAACCUGUGGAUCUACUGGGUUAGCUAA,0.00856 ± 0.0053
19,CUUAAGCUCUGGAUCUACGGGUUACCUAA,0.00958 ± 0.0046
20,CUUAAGCUCUAGGAUCUACUGGGUUACCUAA,0.0369 ± 0.0086
21,CUUAAGGAGACGAUCUACUGGGUUACCUAU [g2:g19:cont:t1U],0.00667 ± 0.0036
22,CUUAAGGACAGGAUCUAGUGGGUUACCUAA,0.00804 ± 0.0074
23,CUUAACCUCUGGUUCUACUGGGUUUCCUAA,1.67 ± 0.98
24,CUUAACCUCUGGAUCUAUGGGUUACCUAA,0.0349 ± 0.01
